Assay results from patent US12577273B2, “Small molecule modulators of gut bacterial bile acid metabolism” (priority 2019, dated 2026).

Legend:
[1] = molecular target: T1, TGR5 (Homo sapiens, UniProt Q8TDU6); experiment: TGR5 luciferase reporter assay in Caco-2 cells; type: cell-based; conditions: overnight, in the presence of 10 μM LCA, listed as compound 7
T1 construct: endogenous in cells; host or cells: Caco-2 (ATCC), transiently transfected only with the CRE-luciferase and Renilla reporter plasmids
T1 sequence (Q8TDU6 1-330): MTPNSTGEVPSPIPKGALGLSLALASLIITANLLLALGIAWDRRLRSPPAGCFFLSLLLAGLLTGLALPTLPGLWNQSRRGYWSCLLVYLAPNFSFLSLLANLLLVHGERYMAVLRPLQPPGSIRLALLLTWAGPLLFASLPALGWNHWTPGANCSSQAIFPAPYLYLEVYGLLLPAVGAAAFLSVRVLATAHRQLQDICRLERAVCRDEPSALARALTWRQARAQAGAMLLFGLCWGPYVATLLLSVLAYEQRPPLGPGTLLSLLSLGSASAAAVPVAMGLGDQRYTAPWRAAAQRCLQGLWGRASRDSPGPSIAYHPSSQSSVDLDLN

[2] = molecular target: T2, FXR (Homo sapiens, UniProt Q96RI1); experiment: LanthaScreen TR-FRET FXR coactivator recruitment assay; conditions: for FXR antagonist activity (in words): in the presence of GW4064 at its EC50 ([…] nM)
T2 sequence (Q96RI1 262-486 limits assumed): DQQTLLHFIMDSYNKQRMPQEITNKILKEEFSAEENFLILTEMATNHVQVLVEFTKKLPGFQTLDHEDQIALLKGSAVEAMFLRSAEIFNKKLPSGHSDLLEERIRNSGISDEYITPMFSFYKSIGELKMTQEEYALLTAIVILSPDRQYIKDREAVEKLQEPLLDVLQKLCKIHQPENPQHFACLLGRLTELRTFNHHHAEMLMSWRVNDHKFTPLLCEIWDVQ

With `C[C@H](CCC(=O)CF)[C@H]1CC[C@H]2[C@@H]3[C@H](O)C[C@@H]4C[C@H](O)CC[C@]4(C)[C@H]3CC[C@]12C` [Compound 7] the “TGR5 antagonist activity (in words)” value [1] was “did not antagonize TGR5”, the “FXR agonist activity (in words)” value ([2]; coactivator recruitment assay, listed as compound 7) was “does not activate FXR” and the “FXR antagonist activity (in words)” value [2] was “neither an agonist nor an antagonist for FXR”. For the same compound, the “FXR antagonist activity (in words)” value ([2]; listed as compound 7) was “does not possess FXR antagonist activity at physiologically relevant concentrations”.
